From the supplement of paper PMC10338343
± gives the standard deviation. The entries are a selection whose mix differs from that of the whole data set.

These sequences were tested on MIWI (PIWIL1) piRISC loaded with piRNA #1 (30 nt) (assay: pre-steady-state target cleavage rate (min^-1); MIWI and MILI are mouse PIWI proteins and EfPiwi is from a freshwater sponge; tags in brackets are library labels; higher = faster piRNA-guided slicing of the target). Conditions: guide: piRNA #1 5'p-UGAGGUAGUAGGUUGUAUAGUAUCCAGAGG; auxiliary factor: 500 nM mouse GTSF1.
Summary of the method: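 Active affinity-purified piRISC carrying one synthetic guide (1 nM) was mixed with a transcribed, DNA-blocked target RNA library […] in HEPES–potassium acetate buffer at 33 °C for 0–8 or 0–960 min, with or without 500 nM GTSF1 partner protein. Uncleaved targets were then sequenced and normalised to depth and to weakly complementary targets. Three trials were pooled, and k3 was capped at 0.0001 min^-1. A burst-and-steady-state fit was applied to obtain the pre-steady-state cleavage rate.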
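Further: 1 nM active piRISC with 0.1 nM target library at 33 °C single turnover.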

Row | Sequence | pre-steady-state target cleavage rate
1 | GGAGACCAUACUAUACAUCCUACUACCUGA | 0.856 ± 0.054
2 | GGAGACGAUAGUAUACAACCUACUACGUCA | 0.0598 ± 0.018
3 | GGAGACCAUAGUAAACAACCUACUACCUCA | 0.137 ± 0.032
4 | GCUGUGGAUACUAUACAACCUACUACCACA | 0.494 ± 0.051
5 | GGUCUGGAUACUAUACUAGCUACUACCUCA | 0.543 ± 0.04
6 | GCUCUGGAUACUAUACAACCUACUACCAUCA | 1.66 ± 0.11
7 | GGAGUCGAUACUAUACAACCUACAACCUCA | 0.245 ± 0.028
8 | GGUCUGGAGUACUAUACAACCUACUACCUCA | 1.57 ± 0.11
9 | GGAGACCUUACUAUACUACCUUCUACCUCA | 0.0539 ± 0.0082
10 | GGAGACCUAUGAUAUCGAACCUACUACCUCA | < 0.0001
11 | GGAGACCUAACUAUACAACCUAACUACCUCA | 0.00844 ± 0.0024
12 | GGAGACCUUACUAUACGACCUACUACCUCA | 0.907 ± 0.076
13 | GGAGACGAUACUAUACAACCUAAUACCUCA | 1.07 ± 0.071
14 | GGACUGGAUACUAUACUAGCUACUACCUCA | 0.453 ± 0.049
15 | CGUCUGGAUACUAUACAACCAACUACCUCA | 0.113 ± 0.012
16 | GGAGUGGAUACUAUACAACCUAGCUACCUCA | 0.217 ± 0.022
17 | GGAGACCUAACUAAACAACCUACUACCACA | 0.217 ± 0.08
18 | GGAGAGGAUACAAUACAACCAACUACCUCA | 0.101 ± 0.0091
19 | GGAGACGAUACUAAACAACCUACUACGUCA | 0.84 ± 0.075
20 | CGUCUGGAUACUAUACAAGCUACUACCUCA | 0.73 ± 0.045

Row | Sequence | pre-steady-state target cleavage rate
21 | GGUCAGGAUACUAAACAACCUACUACCUCA | 1.74 ± 0.096
22 | GGACUGGAUACUAUUGAACCUACUACCUCA | 0.347 ± 0.04
23 | GGAGACCUUACUAUACAACCUAGAUCCUCA | 0.0191 ± 0.0044
24 | GGAGACCAUACUAUACAACCUACUACCUAA | 1.41 ± 0.088
25 | GGAGACCUUACUAUUCAACCUACUAGCUCA | 0.424 ± 0.036
26 | CGUCUCGAUACUAUACAACCUACUACCUCA | 1.62 ± 0.1
27 | GGAGACCAUAGUAUACAACCUAGUACCUCA | 0.301 ± 0.032
28 | GGAGACCUAUCUAUACAACCUACGACCUCA | 0.315 ± 0.035
29 | CCUCUGGAUUCUAUAGAACCUACUACCUCA | 0.834 ± 0.053
30 | GGAGACCUAUGAUAUGUUCCUACUAUCCUCA | < 0.0001
31 | GGAGACCAUACUAUACAUCCAACUACCUCA | 0.0679 ± 0.0095
32 | GGAGACCUAUGAUAUGUACCAACAACCUCA | < 0.0001
33 | GGAGACCUUACUAUACACCUACUACCUCA | 0.00373 ± 0.0025
34 | GGAGUGGAUACUAUACAUCCAACUACCUCA | 0.0901 ± 0.011
35 | GGAGUGGAUACUAUACAAUCUACUACCUCA | 0.396 ± 0.022
36 | CCUCUGGAUACUAUAGUACCUACUACCUCA | 1.51 ± 0.12
37 | GGUCGUGGAUACUAUACAACCUACUACCUCA | 1.72 ± 0.093
38 | GGAGACCUAACUAUACAACCUACUACCACA | 0.95 ± 0.12
39 | CCUCUGGAUACUAUAUAACCUACUACCUCA | 2.07 ± 0.12
